From the supplement of paper PMC10126150
Values marked as one replicate rest on one cluster of the flow cell; about a third of the high ones do not repeat.
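Also: ATP exposure 15 min at 22 °C before imaging.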

Each sequence was assayed on ATP (assay: switch fluorescence ratio, 500 uM ATP over buffer (Cy3 cluster intensity, sum of 5 cycles each) (fold (ratio)); higher = stronger signal-on switching upon ATP binding; sequences stand for … in TCGTCGGCAGCGTCAGATGTGTATAAGAGACAGTTTTTTTTTTTTTTTTTTTTTTTTT…TC). Conditions: aptamer strand: ATP DNA aptamer (quencher-CACCTGGGGGAGTATTGCGGAGGAAGG + anchor), 100 nM annealed; ATP concentration: 500 uM; one replicate.
How it was run: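 Cy3-labelled switching-strand clusters on a modified Illumina MiSeq flow-cell were annealed to 100 nM quencher-labelled ATP aptamer and imaged first in selection buffer, then after 15 min with 500 uM ATP at 22 °C. NaOH stripping and re-annealing separated each of five buffer/ATP cycles, and clusters outside 100-1000 RFU were excluded. The fluorescence ratio sums target-cycle Cy3 intensity over buffer-cycle Cy3 intensity per cluster and averages it per switch-domain sequence.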
AGATCCCGTA showed a switch fluorescence ratio of 0.948. AGATCCTATA gave a switch fluorescence ratio of 0.967. With AGATCCTTGG the switch fluorescence ratio was 1.05. Sequence AGATCGATCG has a switch fluorescence ratio of 1.06. AGATCGTTCC was tested, and the switch fluorescence ratio was 1.51. In the case of AGATCTCCTG, the switch fluorescence ratio is reported as 0.991. AGATCTTAGA showed a switch fluorescence ratio of 0.95. Sequence AGATGAATG has a switch fluorescence ratio of 1.03. Work on AGATGACGTA yielded a switch fluorescence ratio of 0.986. AGATGAGCGG was tested, and the switch fluorescence ratio was 0.965. AGATGAGTAG showed a switch fluorescence ratio of 0.988. Sequence AGATGATTAA has a switch fluorescence ratio of 1.02. AGATGCAGCC showed a switch fluorescence ratio of 1.02. AGATGCATTG gave a switch fluorescence ratio of 0.967. AGATGCCTTT gave a switch fluorescence ratio of 1.01. Sequence AGATGGACAT has a switch fluorescence ratio of 1.01. AGATGGCAAG showed a switch fluorescence ratio of 0.982. AGATGGTACC showed a switch fluorescence ratio of 0.986. Sequence AGATGGTAGC has a switch fluorescence ratio of 1. In the case of AGATGTCCGG, the switch fluorescence ratio is reported as 1.01. AGATGTGAAG was tested, and the switch fluorescence ratio was 1.01. Sequence AGATGTGGCG has a switch fluorescence ratio of 0.967. Sequence AGATGTGTCG has a switch fluorescence ratio of 0.975. With AGATTAGATC the switch fluorescence ratio was 1.02. AGATTAGGAG showed a switch fluorescence ratio of 1.02. Sequence AGATTCCTTA has a switch fluorescence ratio of 0.998. Work on AGATTCGCAT yielded a switch fluorescence ratio of 1.1. AGATTCGTTG gave a switch fluorescence ratio of 0.963. For AGATTGGCTT, the switch fluorescence ratio was 0.969. AGATTGTG gave a switch fluorescence ratio of 0.994. For AGATTTTA, the switch fluorescence ratio was 0.966. For AGCAAAAAAG, the switch fluorescence ratio was 0.937. AGCAAAGATC showed a switch fluorescence ratio of 0.96. For AGCAAATATT, the switch fluorescence ratio was 0.99. In the case of AGCAAATTTC, the switch fluorescence ratio is reported as 1.03. In the case of AGCAACGCAC, the switch fluorescence ratio is reported as 1.4. With AGCAAGCAAA the switch fluorescence ratio was 1.16. AGCACATTTA gave a switch fluorescence ratio of 1.04. Sequence AGCACCATGA has a switch fluorescence ratio of 1.02. Work on AGCACCTGGG yielded a switch fluorescence ratio of 1.14. With AGCACGCAGC the switch fluorescence ratio was 1.08. In the case of AGCACTAGA, the switch fluorescence ratio is reported as 1.07. With AGCACTGGCC the switch fluorescence ratio was 1.04. For AGCAGAAGCT, the switch fluorescence ratio was 1.03. Sequence AGCAGAGCAG has a switch fluorescence ratio of 1.02. With AGCAGAGCCC the switch fluorescence ratio was 0.99. AGCAGCGTGT showed a switch fluorescence ratio of 0.996. AGCAGCTTTC showed a switch fluorescence ratio of 1.08. AGCAGGAAAT showed a switch fluorescence ratio of 1.02. Sequence AGCAGGCAGT has a switch fluorescence ratio of 1. With AGCAGGCCTG the switch fluorescence ratio was 1.02. AGCAGGGGTC showed a switch fluorescence ratio of 1.06. Work on AGCAGGTATG yielded a switch fluorescence ratio of 1.03. Sequence AGCAGGTCGA has a switch fluorescence ratio of 1.03. AGCAGTTGCT was tested, and the switch fluorescence ratio was 0.993. For AGCATAGGTG, the switch fluorescence ratio was 1.29. Sequence AGCATGTCAA has a switch fluorescence ratio of 1.01. For AGCATTCGGG, the switch fluorescence ratio was 1.06. Sequence AGCCAAATAG has a switch fluorescence ratio of 1.17. AGCCAATCGT was tested, and the switch fluorescence ratio was 0.984. Work on AGCCAGGTTT yielded a switch fluorescence ratio of 1.1. AGCCAGTGGG gave a switch fluorescence ratio of 1.08. In the case of AGCCAGTTA, the switch fluorescence ratio is reported as 0.955. AGCCATCATA gave a switch fluorescence ratio of 0.977. AGCCCAGCTG showed a switch fluorescence ratio of 1.04. AGCCCCAAT showed a switch fluorescence ratio of 1.09. In the case of AGCCCCAGC, the switch fluorescence ratio is reported as 1.06. With AGCCCTTCAT the switch fluorescence ratio was 1.02. Work on AGCCGATTGC yielded a switch fluorescence ratio of 1.03. AGCCGCATGT was tested, and the switch fluorescence ratio was 1.79. AGCCGCGGAC showed a switch fluorescence ratio of 2.04. AGCCGCTACC showed a switch fluorescence ratio of 2.9. Work on AGCCGGTGGC yielded a switch fluorescence ratio of 0.963. AGCCGTAATC was tested, and the switch fluorescence ratio was 1.24. Work on AGCCGTCTAT yielded a switch fluorescence ratio of 1.03. For AGCCTAAAC, the switch fluorescence ratio was 1.06. With AGCCTAATCG the switch fluorescence ratio was 0.991. For AGCCTACCTT, the switch fluorescence ratio was 1.05. In the case of AGCCTGATGC, the switch fluorescence ratio is reported as 0.999. Sequence AGCGAAAGGC has a switch fluorescence ratio of 1.04. In the case of AGCGAACCGA, the switch fluorescence ratio is reported as 1.11. In the case of AGCGAATGG, the switch fluorescence ratio is reported as 1.08. Sequence AGCGACCT has a switch fluorescence ratio of 1.36. With AGCGACGGTG the switch fluorescence ratio was 1. Sequence AGCGACGTCA has a switch fluorescence ratio of 1.01.
